Measured values as given in the supplement of paper PMC8728848.
This is one part of the list.

Tests used:
Test in all cases: glycan array binding signal (z-score within array); higher = stronger binding
Settings in all cases: glycan notation: IUPAC condensed, linker removed
[1] = molecular target: Neu5Ac(a2-3)Gal(b1-3)GalNAc(b1-3)Gal(b1-4)GlcNAc
Procedure, shortened: (§1)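 Negative Z-scores can be read as non-binding. The Z-score is calculated within each array and then averaged across arrays of one protein sequence at different concentrations or buffers and across linkers. Arrays, 3228 in all, were curated from the Consortium for Functional Glycomics database and kept only where the protein sequence was available.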

[2] = molecular target: Neu5Ac(a2-3)Gal(b1-3)GalNAc(b1-4)[Neu5Ac(a2-3)]Gal(b1-4)Glc
Procedure, shortened: as §1

[3] = molecular target: Neu5Ac(a2-3)Gal(b1-3)GalNAc6S
Procedure, shortened: as §1

[4] = molecular target: Neu5Ac(a2-3)Gal(b1-3)GlcNAc
Procedure, shortened: as §1

[5] = molecular target: Neu5Ac(a2-3)Gal(b1-3)GlcNAc6S
Procedure, shortened: as §1

[6] = molecular target: Neu5Ac(a2-3)Gal(b1-3)[Fuc(a1-4)]GlcNAc
Procedure, shortened: as §1

[7] = molecular target: Neu5Ac(a2-3)Gal(b1-3)[Fuc(a1-4)]GlcNAc(b1-3)Gal(b1-4)[Fuc(a1-3)]GlcNAc
Procedure, shortened: as §1

[8] = molecular target: Neu5Ac(a2-3)Gal(b1-3)[Neu5Ac(a2-3)Gal(b1-4)]GlcNAc
Procedure, shortened: as §1

[9] = molecular target: Neu5Ac(a2-3)Gal(b1-3)[Neu5Ac(a2-6)]GalNAc
Procedure, shortened: as §1

[10] = molecular target: Neu5Ac(a2-3)Gal(b1-4)Glc
Procedure, shortened: as §1

[11] = molecular target: Neu5Ac(a2-3)Gal(b1-4)GlcNAc
Procedure, shortened: as §1

[12] = molecular target: Neu5Ac(a2-3)Gal(b1-4)GlcNAc(b1-2)Man(a1-3)[Neu5Ac(a2-3)Gal(b1-4)GlcNAc(b1-2)Man(a1-6)]Man(b1-4)GlcNAc(b1-4)GlcNAc
Procedure, shortened: as §1

[13] = molecular target: Neu5Ac(a2-3)Gal(b1-4)GlcNAc(b1-3)Gal(b1-4)GlcNAc
Procedure, shortened: as §1

[14] = molecular target: Neu5Ac(a2-3)Gal(b1-4)GlcNAc(b1-3)Gal(b1-4)GlcNAc(b1-3)Gal(b1-4)GlcNAc
Procedure, shortened: as §1

[15] = molecular target: Neu5Ac(a2-3)Gal(b1-4)GlcNAc(b1-3)Gal(b1-4)[Fuc(a1-3)]GlcNAc
Procedure, shortened: as §1

[16] = molecular target: Neu5Ac(a2-3)Gal(b1-4)GlcNAc6S
Procedure, shortened: as §1

[17] = molecular target: Neu5Ac(a2-3)Gal(b1-4)[Fuc(a1-3)]GlcNAc
Procedure, shortened: as §1

[18] = molecular target: Neu5Ac(a2-3)Gal(b1-4)[Fuc(a1-3)]GlcNAc(b1-3)Gal
Procedure, shortened: as §1

[19] = molecular target: Neu5Ac(a2-3)Gal(b1-4)[Fuc(a1-3)]GlcNAc(b1-3)Gal(b1-4)GlcNAc
Procedure, shortened: as §1

[20] = molecular target: Neu5Ac(a2-3)Gal(b1-4)[Fuc(a1-3)]GlcNAc(b1-3)Gal(b1-4)[Fuc(a1-3)]GlcNAc(b1-3)Gal(b1-4)[Fuc(a1-3)]GlcNAc
Procedure, shortened: as §1

[21] = molecular target: Neu5Ac(a2-3)Gal(b1-4)[Fuc(a1-3)]GlcNAc6S
Procedure, shortened: as §1

[22] = molecular target: Neu5Ac(a2-3)Gal6S(b1-4)GlcNAc
Procedure, shortened: as §1

[23] = molecular target: Neu5Ac(a2-3)Gal6S(b1-4)[Fuc(a1-3)]GlcNAc
Procedure, shortened: as §1

[24] = molecular target: Neu5Ac(a2-3)GalNAc
Procedure, shortened: as §1

[25] = molecular target: Neu5Ac(a2-3)GalNAc(b1-4)GlcNAc
Procedure, shortened: as §1

[26] = molecular target: Neu5Ac(a2-3)[GalNAc(b1-4)]Gal(b1-4)Glc
Procedure, shortened: as §1

[27] = molecular target: Neu5Ac(a2-3)[GalNAc(b1-4)]Gal(b1-4)GlcNAc
Procedure, shortened: as §1

[28] = molecular target: Neu5Ac(a2-3)[Neu5Ac(a2-6)]GalNAc
Procedure, shortened: as §1

[29] = molecular target: Neu5Ac(a2-6)Gal
Procedure, shortened: as §1

[30] = molecular target: Neu5Ac(a2-6)Gal(b1-4)Glc
Procedure, shortened: as §1

[31] = molecular target: Neu5Ac(a2-6)Gal(b1-4)GlcNAc
Procedure, shortened: as §1

[32] = molecular target: Neu5Ac(a2-6)Gal(b1-4)GlcNAc(b1-3)Gal(b1-4)GlcNAc
Procedure, shortened: as §1

[33] = molecular target: Neu5Ac(a2-6)Gal(b1-4)GlcNAc(b1-3)Gal(b1-4)[Fuc(a1-3)]GlcNAc(b1-3)Gal(b1-4)[Fuc(a1-3)]GlcNAc
Procedure, shortened: as §1

[34] = molecular target: Neu5Ac(a2-6)Gal(b1-4)GlcNAc6S
Procedure, shortened: as §1

[35] = molecular target: Neu5Ac(a2-6)GalNAc
Procedure, shortened: as §1

[36] = molecular target: Neu5Ac(a2-6)GalNAc(b1-4)GlcNAc
Procedure, shortened: as §1

[37] = molecular target: Neu5Ac(a2-8)Neu5Ac
Procedure, shortened: as §1

[38] = molecular target: Neu5Ac(a2-8)Neu5Ac(a2-3)Gal(b1-4)Glc
Procedure, shortened: as §1

B1: FaeGab (Escherichia coli) (protein)
chain: WMTGDFNGSVDIGGSITADDYRQKWEWKVGTGLNGFGNVLNDLTNGGTKLTITVTGNKPILLGRTKEAFATPVSGGVDGIPQIAFTDYEGASVKLRNTDGETNKGLAYFVLPMKNAEGTKVGSVKVNASYAGVFGKGGVTSADGELFSLFADGLRAIFYGGLTTTVSGAALTSGSAAAARTELFGSLSRNDILGQIQRVNANITSLVDVAGSYREDMEYTDGTVVSAAYALGIANGQTIEATFNQAVTTSTQWSAPLNVAITYY
glycan array binding signal (z-score) [1]: -0.486 | glycan array binding signal (z-score) [2]: -0.435 | glycan array binding signal (z-score) [3]: -0.441 | glycan array binding signal (z-score) [4]: -0.476 | glycan array binding signal (z-score) [5]: -0.218 | glycan array binding signal (z-score) [6]: -0.431 | glycan array binding signal (z-score) [7]: 0.808 | glycan array binding signal (z-score) [8]: -0.529 | glycan array binding signal (z-score) [9]: -0.403 | glycan array binding signal (z-score) [10]: -0.397 | glycan array binding signal (z-score) [11]: -0.399 | glycan array binding signal (z-score) [12]: 0.621 | glycan array binding signal (z-score) [13]: -0.483 | glycan array binding signal (z-score) [14]: -0.511 | glycan array binding signal (z-score) [15]: 0.134 | glycan array binding signal (z-score) [16]: -0.446 | glycan array binding signal (z-score) [17]: -0.476 | glycan array binding signal (z-score) [18]: -0.337 | glycan array binding signal (z-score) [19]: -0.364 | glycan array binding signal (z-score) [20]: -0.196 | glycan array binding signal (z-score) [21]: -0.299 | glycan array binding signal (z-score) [22]: 0.755 | glycan array binding signal (z-score) [23]: -0.268 | glycan array binding signal (z-score) [24]: -0.472 | glycan array binding signal (z-score) [25]: -0.36 | glycan array binding signal (z-score) [26]: -0.508 | glycan array binding signal (z-score) [27]: -0.344 | glycan array binding signal (z-score) [28]: -0.489 | glycan array binding signal (z-score) [29]: -0.488 | glycan array binding signal (z-score) [30]: -0.411 | glycan array binding signal (z-score) [31]: -0.473 | glycan array binding signal (z-score) [32]: -0.305 | glycan array binding signal (z-score) [33]: -0.433 | glycan array binding signal (z-score) [34]: -0.427 | glycan array binding signal (z-score) [35]: -0.095 | glycan array binding signal (z-score) [36]: -0.38 | glycan array binding signal (z-score) [37]: -0.361 | glycan array binding signal (z-score) [38]: -0.336
